Measurements from PubChem BioAssay AID1508624 (National Center for Advancing Translational Sciences (NCATS), 2021).
Hit rate of the full screen: of about 48,000 compounds, about 120 (0.25%) were called active. Not shown: some 4% with an inconclusive outcome. Calls follow the shape of the dose curve; as a rule, active = well fitted activation curve with a large enough effect; inconclusive = small, poorly fitted or top-dose-only effect, or another doubt; inactive = no such curve, though single readings can be large or run the other way. This is one part of the list.

Experiment: Primary qHTS for Identification of Small Molecule Activators of Huntingtin-Antisense Promoter Activity; also: nearly all actives have a fitted effect of over 55% in size
Details: HEK293 HTT-AS promoter firefly luciferase reporter (activity 0% = vehicle and -100% = no light), 24 h; series mostly up to 57.5 µM; activity change, positive = activation: at the top concentration
Summary of the method: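 HEK293 luciferase promoter-reporter cells (2,500/well) plated 24 h, then compounds added at up to 57.5 uM final for 24 h at 37 °C. Firefly luminescence by Dual-Glo, normalized to vehicle (0%) and zero RLU (-100%).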

Activity change, positive = activation, inactive:
CCCCN1CC(c2nc3ccccc3n2CCCCOc2cc(C)ccc2C)CC1=O (stereo not drawn) -47.1%, O=C(CS(=O)(=O)c1cccc2nsnc12)Nc1ccccc1Cl -10.6%, CN(C(=O)CCc1nc(-c2ccccc2F)no1)c1ccc(Cl)cc1 -18.5%, O=S(=O)(c1ccc(OC(F)(F)F)cc1)N1CCC(c2nnnn2-c2ccc(F)cc2)CC1 -15.1%, Cc1ccc(NC(=O)c2nc(S(C)(=O)=O)ncc2N(Cc2ccc(C(C)(C)C)cc2)Cc2ccco2)cc1C -15.2%, COc1cc(C(=O)NCC(c2ccc3c(c2)OCO3)N2CCOCC2)cc(OC)c1OC (stereo not drawn) -7.27%, CCCC(O)c1nc2ccccc2n1CCCOc1ccc(Cl)cc1 (stereo not drawn) -38.9%, CCc1cccc(NC(=O)C2CCCN(c3ncnc4onc(-c5ccc(F)cc5)c34)C2)c1 (stereo not drawn) -29.7%, CCN1CCSc2ccc(C(=O)NCc3ccc(OC(C)C)cc3)cc21 -9.35%, CCn1cc(C(=O)OCC(=O)Nc2ccc(C)c(Cl)c2)c(=O)c2ccc(C)nc21 -2.11%, COc1ccc(-c2noc(CSCC(=O)Nc3cc(OC)c(OC)c(OC)c3)n2)cc1OC 0.105%, CCOc1ccc(-c2cc3c(=O)n(CC(=O)NCc4ccc(C)cc4)ccn3n2)cc1 27.3%, Cc1cccc(C(=O)OCc2cc(=O)n3ccsc3n2)c1 27.3%, COc1ccc(Cn2ccc3nc(C)c(C(=O)Nc4ccc(OC)cc4)cc3c2=O)cc1 -9.3%, COc1ccc(CNC(=O)C2CCN(S(=O)(=O)c3c(C)noc3/C=C/c3ccccc3F)CC2)cc1 -2.07%, CC(=O)Nc1nc2n(n1)C(c1ccc(F)cc1)C=C(c1ccc(Cl)cc1)N2 (stereo not drawn) -17.9%, CC(C(=O)NCCSCc1cccc(Cl)c1)N(c1ccccc1)S(C)(=O)=O (stereo not drawn) -32.5%, COc1ccc(CCNC(=O)CCn2c(=O)c3ccccc3n(Cc3ccccc3F)c2=O)cc1OC -25.1%, O=c1cc(-c2ccc(O)cc2)oc2cc(O)cc(O)c12 18.5%, Cc1cccc(OCC(=O)Nc2cccc(OCc3cc(=O)n4cccc(C)c4n3)c2)c1 0.789%, Cc1cc2nc(-c3cccc(NC(=O)c4cccc5ccccc45)c3)oc2cc1C 5.38%, CCOc1ccc(N2CC(NC(=O)c3ccco3)CC2=O)cc1 (stereo not drawn) -4.55%, CC1CCCN(C(=O)c2cc3ccc4cccnc4c3[nH]2)C1 (stereo not drawn) -57.1%, Cc1cc(C)c(NC(=O)Cn2c(=O)c3cccn3c3ccccc32)c(C)c1 -7.66%, COc1cccc(-n2ccnc2SCC(=O)Nc2c(C)cc(C)cc2C)c1 -14.5%, CCCCNC(=O)c1ccc2c(c1)N(Cc1ccc(F)cc1)C(=O)c1ccccc1S2=O (stereo not drawn) -25.4%, CCOCCCNC(=O)c1ccc(-n2c(-c3ccccc3)cc3c2CCCC3)cc1 5.98%, CCSc1ncc(Cl)c(C(=O)N2CCN(c3ccccc3OC)CC2)n1 -40%, Cc1ccc(C)c(NC(=O)CN(C)S(=O)(=O)c2cccc3nsnc23)c1 1.17%, CCN(CC)c1nc2ccccc2nc1C(=O)Nc1ccc(C(C)=O)cc1 -6.15%, Cc1ccc(-n2nc(C(=O)Nc3ccc(F)cc3F)c3c4ccccc4n(C)c3c2=O)cc1 -9.54%, Cc1cccc(N(C)c2nc3ccc(C(=O)c4ccccc4)cc3n3c(C)nnc23)c1 -49.4%, CC(C)(C)C1CCc2c(sc(NC(=O)c3cc4ccccc4c(=O)o3)c2C(N)=O)C1 (stereo not drawn) -1.73%, Cc1ccc(C)c(NC(=O)Cn2c(=O)n(CCC(C)C)c(=O)c3cccnc32)c1 -15.4%, COc1ccccc1NC(=O)Cn1cc(S(=O)(=O)Cc2ccccc2)c2ccccc21 -24.4%, CCCCCOc1ccc(/C=C/C(=O)Nc2sc(C)c(C)c2C(=O)OCC)cc1OC 2.13%, O=C(O)Cc1csc(-c2ccc(Cl)cc2)n1 -5.6%, CC(=O)c1cccc(NC(=O)C2CCN(S(=O)(=O)c3ccc4c(c3)CCCN4C(C)=O)CC2)c1 -12.3%, Cc1ccc(-c2nc(C)c(CCNC(=O)c3cccs3)s2)cc1 -4.77%, Cc1c(C(=O)OCc2ccccc2)[nH]c2c1C(=O)CC(c1ccc(C(C)(C)C)cc1)C2 (stereo not drawn) -18.5%, CCc1cccc(NC(=O)c2cc3c(=O)n(Cc4ccccc4)ccc3nc2C)c1 -38.6%, C[C@H](NC(=O)c1sccc1OCc1ccc(Cl)cc1)c1ccccc1 -45.7%, Cc1ccc(CN2CCCn3nc(C(=O)NCCc4ccccc4C)cc3C2=O)cc1 3.69%, CC(C)c1ccc(NC(=O)C2CCN(C(=O)c3ccc(F)cc3)CC2)cc1 -23.2%, COc1cc(C(=O)Nc2ccccc2-c2nc(-c3ccccc3)no2)cc(OC)c1OC 3.87%, CC(C)CCNC(=O)CN1C(=O)CSc2ccc(S(=O)(=O)N3CCC(C)CC3)cc21 -17.4%, Cc1ccc2nc(-c3cccs3)c(Nc3c(C)cccc3C)n2c1 -44.1%, Cc1c(C(=O)NCc2ccc(F)cc2)oc2ccc(S(=O)(=O)N3CCCCC3)cc12 -20.8%, COc1ccc(NC(=O)[C@H]2O[C@@H]3OC(C)(C)O[C@@H]3[C@H]3OC(C)(C)O[C@H]32)c(OC)c1 11%, CCOC(=O)C1CCCN(c2nc3c(S(=O)(=O)c4ccc(CC)cc4)nnn3c3ccsc23)C1 (stereo not drawn) -19.7%, Cc1ccc2c(c1)c1c(c(=O)n(-c3cccc(Cl)c3)c(=O)n1CC(=O)NCC1CCCO1)n2C (stereo not drawn) -8.42%, Cn1c(=O)[nH]c(=O)c2c1nc(N1CCOCC1)n2Cc1ccccc1 -23%, C=C1C(=CC=C2CCC[C@]3(C)[C@@H]([C@H](C)C=C[C@H](C)C(C)C)CC[C@@H]23)C[C@@H](O)C[C@@H]1O -21.6%, CCc1cccc(NC(=O)CCc2nc3cccnc3n2Cc2ccc(OC)cc2)c1 -24.1%, CCOC(=O)Cc1ccc(NC(=O)Nc2c[nH]c(=O)[nH]c2=O)cc1 -13.5%, CCN(CC)CCNC(=O)Cn1ncc2c3ccccc3n(Cc3ccc(Cl)cc3)c2c1=O 0.0939%, Cc1ccc(-c2csc(-c3nc(-c4ccc(Br)s4)cs3)n2)cc1 -10.4%, Cc1ccc(NC(=O)CSc2nc(=O)n(Cc3cccnc3)c3c2CCC3)cc1F -39.8%, CCc1cccc(C)c1NC(=O)c1cc(S(=O)(=O)N(Cc2ccc(C(=O)OC)cc2)Cc2ccc(OC)c(OC)c2)ccc1F -13.8%, Cc1ccccc1C(=O)N1CC/C(=N\OS(=O)(=O)O)c2ccc(Cl)cc21 0.282%, Cc1ccccc1Oc1nc2ccccn2c(=O)c1/C=C(\C#N)c1nc2ccccc2[nH]1 -3.54%, COc1ccc(NC(=O)CN2C(=O)CC(c3ccc(C)c(C)c3)=Nc3ccccc32)cc1OC 23.1%, COc1ccc(Cc2nc3ccc(C(=O)NCc4ccccc4C)cc3o2)cc1 -14%, CCC(CC)C(=O)Nc1ccc2nc(SCC(=O)N3CCCC3)sc2c1 -21.3%, CCOc1ccc(NC(=O)C(Cc2ccccc2)NS(=O)(=O)c2ccc3c(c2)oc(=O)n3C)cc1 (stereo not drawn) -12.8%, Cc1c(Cl)cccc1-c1ccc(CNCCSc2nnnn2-c2ccccc2)o1 4.36%, COc1ccccc1C(=O)Nc1ccc2nc(SCC(=O)N(C)c3ccccc3)sc2c1 -42.6%, CCS(=O)(=O)c1ncc(N(Cc2ccccc2)Cc2ccco2)c(C(=O)Nc2cccc(Cl)c2C)n1 -24%, CCN(CC)S(=O)(=O)c1ccc(NC(=O)CN(c2ccccc2)S(=O)(=O)N(C)C)cc1 -16.5%, CCOc1ccc(NC(=O)c2c(Nc3ccccc3C)sc(C(=O)c3ccccc3)c2N)cc1 -27.8%, O=C(CN1C(=O)C2(SCC(=O)N2c2cccc(Cl)c2)c2ccccc21)NCCc1ccccc1 (stereo not drawn) -34.3%, CCOc1ccc(CNC(=O)c2ccc3c(c2)c(C)c(C)n3Cc2ccccc2)cc1OC -12%, Cc1ccc(-n2ncc(C(=O)N3CCN(c4cc(Cl)ccc4C)CC3)c2C2CCN(C(=O)OC(C)(C)C)CC2)cc1 0.14%, COc1ccc(CCNC(=O)c2ccc3c(c2)N(Cc2ccccc2)C(=O)c2ccccc2S3=O)cc1OC (stereo not drawn) -21.6%, COC(=O)c1ccc(Cl)cc1NC(=O)Nc1nnc(N2CCCC2)s1 0.75%, Cc1ccc(C)c(Cn2c3ccccc3c3cnn(CC(=O)NC(C)CCc4ccccc4)c(=O)c32)c1 (stereo not drawn) -29.3%, Fc1ccc(C(c2nnc(-c3ccccc3)o2)N2CCN(c3cccc(Cl)c3)CC2)cc1 (stereo not drawn) -17.8%, COc1ccc(CN2C(=O)C(NC(=O)c3cccc(C)c3)(C(F)(F)F)N=C2c2ccccc2)cc1 (stereo not drawn) -24%, Cn1c2ccccc2c2cnn(CC(=O)NCCCN3CCCCC3)c(=O)c21 -5.53%, CCOc1ccc(NC(=O)CSc2cn(CCNC(=O)c3ccccc3F)c3ccccc23)cc1 -19%, CCc1ccccc1NC(=O)CSc1nncn2c1cc1oc(C)cc12 -32.4%, CCOC(=O)C(CC)n1nnc2sc(-c3ccccc3)cc2c1=O (stereo not drawn) 4.73%, O=C(NCCS(=O)(=O)N1CCN(c2ccc(F)cc2)CC1)C(c1ccccc1)c1ccccc1 -16.9%, CC(=O)c1cccc(NC(=O)CSc2nnc3ccc(-c4ccc(Br)cc4)nn23)c1 -4.76%, Cc1ccc2oc(=O)c3cnn(CC(=O)N4CCN(c5ccc(F)cc5)CC4)c3c2c1 -7.6%, CC(C)Oc1ccccc1-c1nc(SCC(=O)c2ccc(F)cc2)n[nH]1 -23.3%, Cc1ccc(CNC(=O)CSc2nc3c(sc4ccccc43)c(=O)n2CCCOC(C)C)cc1 -9.61%, Cc1ccc(NC(=O)Cn2c(=O)n(Cc3ccccc3)c(=O)c3sc4ccccc4c32)cc1 -9.13%, Cc1ccc(-n2c(=O)c3sc4ccccc4c3n(CC(=O)NC3CCCC3)c2=O)cc1C -26.6%, COc1ccc(OC)c(CCNC(=O)c2cc3c(s2)-c2c(C)cccc2OC3)c1 -18%, CCc1nc2ccc(C(=O)N3CCN(c4cc(Cl)ccc4C)CC3)cc2nc1CC -35%, Cc1ccc(S(=O)(=O)NCC2CCC(C(=O)NCCc3ccccc3)CC2)cc1 (stereo not drawn) -8.9%, CC(=O)Nc1ccc(S(=O)(=O)NC2(C(F)(F)F)C(=O)Nc3c2c(=O)[nH]c(=O)n3-c2cccc(Cl)c2)cc1 (stereo not drawn) -8.16%
